Some of the results follow.
B1: chr5:43295829:43295944:-|CDS|ENSG00000112972|unk|total|mutant (ssRNA)
RNA: GGGAGUUCUACAGUCCGACGAUCAAUAUCCCCGCUUUAUUCUAAAGUCAAACUUUAAAAUUUCAUGGCUUAUAUGAAUUUCACCGUUUCCUUGGACUUCUCUUUCAGAGGGAAAUGAUAAAGAUUUUACCUUGAAUGAUUUUGCAACAGAGGAUUGAGCAUCA
B2: chr7:6691352:6691453:-|CDS|ENSG00000164631|unk|total|mutant (ssRNA)
RNA: GGGAGUUCUACAGUCCGACGAUCUACGAAUGUAAUGAAUGUGGAAAGUUAUUCUCCCAGUUGUCAUACCUCACUAUCCAUCACCGAACUCAUUCAGGAGUAAAACCCUAUGAAUGCCGUGAAUGUGGGAAAACCUUCUACCAGCAACAGAGGAUUGAGCAUCA
B3: chr3:31636526:31636632:+|3pUTR|ENSG00000163527|unk|FALSE|unique (ssRNA)
RNA: GGGAGUUCUACAGUCCGACGAUCCAAAAUGUGAUGAGAGCUUCUUGAACCGGUAAACUAGUACAGGUCUGAGAAAGACAUAUUAGAAGAAUCAUUAUACUUCCUUGAAUUAUAUUUAUUUUCAUGUUUCUCUAAUGCAAAGAACAACAGAGGAUUGAGCAUCA
B4: chrX:150768173:150768360:-|3pUTR|ENSG00000102181|msi1|FALSE|unique (ssRNA)
RNA: GGGAGUUCUACAGUCCGACGAUCUCCCAUCUGAUUCCAUAGGGGGCUGGGUGUGGCCUUCGGGUUGACAUGAGAAAGGUCUUUAGCAAUCAUUUCUGCACCGGAGAUGAGUUUUAUCCUGUGUUGGGGAGAGGUGCUCACCCUCAACAGAGGAUUGAGCAUCA
B5: chr1:166069298:166070240:-|three_prime_utr|ENSG00000188859|control|control|control (ssRNA)
RNA: GGGAGUUCUACAGUCCGACGAUCAGUUUCUGAGCCAAAGCAGACCUCUCGGUUUGCCAGCCUUUGCAGCCACUUUUGAAGAGUAGGGCUGCUCCUUGGGUGGUAGAACCAUAAUCCUUAGGAAAAAUCCCUUCCUCUUAGGAACAACAGAGGAUUGAGCAUCA
B6: ENSG00000198589:be:win_5301|CDS|ENSG00000198589|bound_else_gene|NA|bound_elsewhere_windowed (ssRNA)
RNA: GGGAGUUCUACAGUCCGACGAUCACCAGGCAGUAGAUCAUCUAAUGCAAAAUUGCCCUCAGUUCCAACAGUUGAUUCAGUUUCACAAGAUCCGGUUUCAAAUAUGAGUAUUACAGAGAGGCUUGAACACGCUUUGGAAAAGGCCAACAGAGGAUUGAGCAUCA
B7: chr19:582815:582998:+|CDS_3pUTR|ENSG00000172270|msi1_unk|total|mutant (ssRNA)
RNA: GGGAGUUCUACAGUCCGACGAUCUCAUACACUUCCUUCUUUUUUAAAAAAGUUGGGUUUUCUCCAUUCAGGAUUCUGUUCCUCCGGUUUUUUUCCUUCUGAAGUGUUUCACGAGAGCCCGGGAGCUGCUGCCCUGCGGCCCCGCAACAGAGGAUUGAGCAUCA
B8: chr19:51029091:51029457:-|three_prime_utr|ENSG00000186474|control|control|control (ssRNA)
RNA: GGGAGUUCUACAGUCCGACGAUCCCUUAACUUGGGUACCCCUCUGGCCCUCAGAGCACCAAUAUCUCCUCCAUCACUUCCCCUAGCUCCACUCUUGUUGGCCUGGGAACUUCUUGGAACUUUAACUCCUGCCAGCCCUUCUAACAACAGAGGAUUGAGCAUCA
B9: chr17:67075675:67075776:-|3pUTR|ENSG00000198265|unk|total|mutant (ssRNA)
RNA: GGGAGUUCUACAGUCCGACGAUCAUUCCUUAUUUCCACCGCCAGUCAAGGAUUCUAACGCUGCUUCCAUCUGAUACUCUUCUCCGAUUCUGCAUCAAAUGCUUAUUUUGACUUACAACAAGCUUACUCUUCCUCAGCAUUACACAACAGAGGAUUGAGCAUCA
B10: chrX:154436128:154436291:+|3pUTR|ENSG00000071553|msi1_unk|total|mutant (ssRNA)
RNA: GGGAGUUCUACAGUCCGACGAUCAUUCCCGGGUCUCCUUUCUCCUUAUUUAUUCUUGUGGCUACAUCAUCCCUGGCUGUGGACCGUGCUUUUGUGCCGCAAAUGCUCCCUCCUUAAGGUUACCGGGCUCCCUGAGUUUGGGAGCAACAGAGGAUUGAGCAUCA
B11: ENSG00000064393:stop:overlap|stop_codon|ENSG00000064393|stop_codon|NA|stop_codon (ssRNA)
RNA: GGGAGUUCUACAGUCCGACGAUCUCUCCCUGGAGAGUGGUUUUCCUGCUUUUCUGCUGCUAGAAAUGUUGCUGUAUGGGAGCUAGUACAAUAGAAAGUGCCCAGUGACUGCAGGCGACCCUUACCGAGGAUUUUAUUCAAGUACAACAGAGGAUUGAGCAUCA
B12: chr17:29548703:29548809:+|3pUTR|ENSG00000160551|unk|FALSE|bound_elsewhere (ssRNA)
RNA: GGGAGUUCUACAGUCCGACGAUCAGCACUUGUGAGUGAAAAAUCAUGUAAUUAUCUGUAAAUAUGUAGCUAACAAAUUGACCUAGUUUCUGUAUUUUUUUGUUUUUGUACUAAAGUUUAUAGGUCUGUGCCAGCUAGAGAGAACAACAGAGGAUUGAGCAUCA
B13: chr6:87085629:87085739:-|3pUTR|ENSG00000135346|unk|total|mutant (ssRNA)
RNA: GGGAGUUCUACAGUCCGACGAUCGUUUUACCAAGUGCUGUCUUGAUGACUGCUGAUUUUCUGGAAUGGAAAAUUAAGUUGUUCCGUGUUUAUGGCUUUGUGAGAUAAAACUCUCCUUUUCCUUACCAUACCACUUUGACACGCCAACAGAGGAUUGAGCAUCA
B14: chr5:177595998:177596040:+|3pUTR|ENSG00000184840|msi1_unk|FALSE|overlapping (ssRNA)
RNA: GGGAGUUCUACAGUCCGACGAUCCCUGAGCUGCUUCACAUGGUUGUCCAUUCUGGGGCUUAAAGAACUGGGACCAGACCAAGUAGAGGCCUUGGUGCUGGUUGGGGUGGGGCCUGCAGAGUCUUAGUUACUGAUUUCAUUUUCCAACAGAGGAUUGAGCAUCA

The binders below were run against MSI1 full-length (mouse, UniProt Q61474 1-362) (assay: nsRBNS (natural sequence RNA bind-n-seq); RBNS binding buffer (assumed for nsRBNS): 25 mM Tris pH 7.5, 150 mM KCl, 3 mM MgCl2, 0.01% Triton X-100, 500 ug/ml BSA, 20 U/ml SUPERase-In, 4 C; UNK is unkempt and MSI1 is Musashi-1; names of the RNAs are library labels; protein concentration not given here; high values mean tight binding).
Chain of UniProt Q61474 (Q61474 whole entry): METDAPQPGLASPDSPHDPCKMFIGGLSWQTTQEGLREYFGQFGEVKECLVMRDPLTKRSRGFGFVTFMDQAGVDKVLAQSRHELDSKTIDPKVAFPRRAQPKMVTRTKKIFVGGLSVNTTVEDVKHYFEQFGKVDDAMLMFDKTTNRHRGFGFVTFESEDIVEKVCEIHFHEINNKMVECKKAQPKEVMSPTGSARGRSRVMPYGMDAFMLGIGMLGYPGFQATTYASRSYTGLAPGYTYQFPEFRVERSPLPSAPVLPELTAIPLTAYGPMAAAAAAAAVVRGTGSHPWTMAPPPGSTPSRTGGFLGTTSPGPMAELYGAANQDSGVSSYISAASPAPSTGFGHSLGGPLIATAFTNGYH

**Q.** With B1 as the binder, how does the binding signal read?
**A.** 0.344 enrichment R

**Q.** Which binding signal does the source give for B2 here?
**A.** 0.294 enrichment R

**Q.** How did the binding signal turn out when B3 was run?
**A.** 2.07 enrichment R

**Q.** With B4 as the binder, how does the binding signal read?
**A.** 0.563 enrichment R

**Q.** For B5, which binding signal is on record?
**A.** 0.442 enrichment R

**Q.** How did the binding signal turn out when B6 was run?
**A.** 0.342 enrichment R

**Q.** With B7 as the binder, how does the binding signal read?
**A.** 0.335 enrichment R

**Q.** B8 was tested. Which binding signal did it give?
**A.** 0.887 enrichment R

**Q.** With B9 as the binder, how does the binding signal read?
**A.** 0.844 enrichment R

**Q.** How did the binding signal turn out when B10 was run?
**A.** 0.523 enrichment R

**Q.** How did the binding signal turn out when B11 was run?
**A.** 0.605 enrichment R

**Q.** For B12, which binding signal is on record?
**A.** 12 enrichment R

**Q.** How did the binding signal turn out when B13 was run?
**A.** 0.394 enrichment R

**Q.** How did the binding signal turn out when B14 was run?
**A.** 0.677 enrichment R

Reference: article PMC12136788
